About 260 (0.074%) of roughly 350,000 compounds were called active. Inconclusive results, whose numbers are uncertain, are shown with a selection of clear calls. The call rests on the fitted dose curve; in most records, active means well fitted inhibition curve with a large enough effect; inconclusive means small, poorly fitted or top-dose-only effect; inactive means no such curve, though single readings can be large or run the other way. Potencies of inconclusive entries are doubtful fits and often do not repeat.
What follows are compounds tested against Ferritin light chain (Equus caballus) (UniProt P02791) (assay: qHTS Assay for Identification of Novel General Anesthetics). Settings: apoferritin/1-aminoanthracene competitive binding, fluorescence; series mostly up to 77.5 µM.
UniProt P02791, sequence (P02791 whole entry, looked up): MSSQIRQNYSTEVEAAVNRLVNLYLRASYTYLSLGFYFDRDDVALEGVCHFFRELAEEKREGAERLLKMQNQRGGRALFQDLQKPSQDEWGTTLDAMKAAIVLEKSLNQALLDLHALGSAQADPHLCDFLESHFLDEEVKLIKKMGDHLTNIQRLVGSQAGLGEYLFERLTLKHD
How it was run: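 Read-out: endpoint 1-AMA fluorescence, excitation 380 nm and emission 535 nm, after compounds sit 10 min at room temperature with 10 uM horse-spleen apoferritin in 50% saturated 1-AMA/PBS. Values come from four-parameter Hill fits.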
Further: nearly all actives have a fitted effect of over 20% in size.
Potency means the concentration at half of the fitted maximal effect; tags describe the fitted curve by direction and shape.

Potency, inconclusive:
COc1cc(NS(=O)(=O)c2ccc(-c3cc(C)no3)cc2)cc(OC)c1 39.8 µM [inhibitor, partial curve]
O=C(CSc1nnc(-c2cccnc2)n1Cc1ccco1)N1c2ccccc2Sc2ccccc21 12.6 µM [inhibitor, partial curve]
COc1cc(Br)cc(-c2nc3c(c(=O)[nH]c(=O)n3Cc3ccccc3)n2C)c1O 10 µM [inhibitor, full curve, poor fit]
CCc1cc(OCCCCNCc2ccccc2)ccc1Cl 50.1 µM [inhibitor, single point]
COc1ccccc1-c1cc(N)n[nH]1 12.6 µM [inhibitor, partial curve]
Cc1ccc(C(=O)COC(=O)CCC(=O)NC2CCCCC2)cc1C 20 µM [inhibitor, partial curve]
Cn1nc(-c2ccccc2)cc1NC(=O)Nc1ccc(C(C)(C)C)cc1 35.5 µM [inhibitor, single point]
COCC(=O)c1[nH]c2ccccc2c1C 35.5 µM [inhibitor, single point]
Cc1c(O)cccc1C(=O)N[C@@H](CSc1ccccc1)[C@H](O)CN1C[C@H]2CCCC[C@H]2C[C@H]1C(=O)NC(C)(C)C 3.16 µM [inhibitor, partial curve]
N/C(=N\OC(=O)CSc1ccccc1)c1ccccn1 28.2 µM [inhibitor, partial curve]
COc1ccc(/C=C2\SC(=S)N(N3C(=O)CCC3=O)C2=O)cc1O 35.5 µM [inhibitor, partial curve]
CC1=NN(CCC#N)C(=O)/C1=C/c1ccc(N(C)C)cc1 39.8 µM [inhibitor, single point]
O=C(O)c1cc(Cl)c(Cl)cc1C(=O)NCc1ccco1 28.2 µM [inhibitor, partial curve]
N#CC(C#SN)=C1CCCCC1 56.2 µM [inhibitor, single point]
COc1ccc(NC2CCCN(C(=O)CSc3ccccc3)C2)cc1OC (stereo unspecified) 35.5 µM [inhibitor, partial curve]
NCCc1nnc(SCc2ccccc2F)o1 28.2 µM [inhibitor, partial curve]
O=C(c1ccc(Cl)cc1)N1CCCCC(Cl)C1=O (stereo unspecified) 56.2 µM [inhibitor, single point]
Cc1ccc(-n2nc3c(=O)n(C(C)C(=O)NCc4ccc5c(c4)OCO5)nc(C)c3c2C)cc1 (stereo unspecified) 6.31 µM [inhibitor, full curve, poor fit]
CC(C)Oc1cc(NC(=O)CS(=O)CC(=O)Nc2cccc(C(F)(F)F)c2)c(Cl)cc1Cl (stereo unspecified) 11.2 µM [inhibitor, partial curve]
O=C(CN1CCN(CC(=O)c2ccc(F)cc2)CC1)Nc1ccccc1Cl 22.4 µM [inhibitor, partial curve]
Cc1ccc(-c2nc(N/N=C/c3cccnc3)c3ccccc3n2)cc1 31.6 µM [inhibitor, partial curve]
O=C(Nc1ccc(F)cc1)c1cccc(N2C(=O)C3C4C=CC(C4)C3C2=O)c1 (stereo unspecified) 28.2 µM [inhibitor, partial curve]
c1ccc2c(c1)C(=NC1CCCCC1)NC2=NC1CCCCC1 12.6 µM [inhibitor, partial curve]
CCCc1nnc(NC(=O)Nc2ccccc2OC)s1 44.7 µM [inhibitor, single point]
O=C(Nc1nccs1)c1ccc(N2CCOCC2)c([N+](=O)[O-])c1 28.2 µM [inhibitor, partial curve]
Cc1cccc(Nc2nc(-c3ccncc3)cs2)c1 20 µM [inhibitor, partial curve]
CCN(CC)S(=O)(=O)c1cc(NC(=O)COC(=O)CCc2nc3ccccc3s2)ccc1C 7.08 µM [inhibitor, partial curve]
CN(C(=S)NC(=O)CCCOc1ccc(Cl)cc1Cl)c1ccccc1 50.1 µM [inhibitor, single point]

Potency, inactive:
COc1ccc(-c2cc(-c3ccccc3)nc3ncnn23)cc1
COCCCn1c(=N)c(C(=O)NC2CCCCC2)cc2c(=O)n3cc(C)ccc3nc21
CCOCCCNC(=O)c1cn(CC)c2ccc(S(=O)(=O)N3CCCC3)cc2c1=O
CCN(CC)c1ccc(Nc2nc(-c3cccnc3)cs2)cc1
Cc1nc(SCCO)c([N+](=O)[O-])[nH]1
Clc1ccc(CN2CCc3c([nH]c4ccccc34)C2)cc1Cl
Cc1ccc2c(nc3s/c(=C\c4ccc(-c5ccccc5C(=O)O)o4)c(=O)n32)c1C
CCOC(=O)c1cnc2ccc(OCC)cc2c1Nc1ccc(OCc2ccccc2Cl)cc1
Cc1ccc(-c2cc(C(=O)N3CCN(c4ncccn4)CC3)c3cc(Br)ccc3n2)o1
CCN(C(=O)Cn1ncc2c(=O)oc3ccccc3c21)c1ccccc1F
CCOc1ccc(-c2nc(C#N)c(N3CCN(CC)CC3)o2)cc1
Cc1ccc(S(=O)(=O)NN=C2C3CC4CC(C3)CC2C4)cc1[N+](=O)[O-]
Cc1nc(-c2nc(-c3c(C(=O)NNC(=O)Nc4ccccc4)noc3C)cs2)cs1
O=C1N=C(N2CCOCC2)S/C1=C\c1ccccc1OS(=O)(=O)c1ccccc1
COc1ccc(CC(=O)NCc2nn(-c3ccccc3)nc2C)cc1OC
CCCOc1cccc(C2c3c(oc4ccc(F)cc4c3=O)C(=O)N2c2nc(C)c(C(C)=O)s2)c1 (stereo unspecified)
O=S(=O)(c1ccc2c(c1)nc(COc1ccc(Cl)cc1)n2CC1CCCO1)N1CCOCC1 (stereo unspecified)
CC(C)c1ccc(Nc2c(-c3ccc(N(C)C)cc3)nc3cnccn23)cc1

— PubChem BioAssay AID485281 (National Center for Advancing Translational Sciences (NCATS), 2010)
